According to PMC12136788:
The list shows a part of the results.

T1: UNK ZnF1-3 (human, UniProt Q9C0B0 31-174)
T1 sequence: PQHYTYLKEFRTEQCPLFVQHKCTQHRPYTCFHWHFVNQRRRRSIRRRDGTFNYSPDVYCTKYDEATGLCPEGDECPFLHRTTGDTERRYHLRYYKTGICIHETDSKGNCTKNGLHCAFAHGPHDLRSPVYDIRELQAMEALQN

B1: chr11:2981123:2981124:-_ENSG00000205531_ENST00000380542|hu_mus|motif|central (ssRNA)
RNA: GGGAGUUCUACAGUCCGACGAUCCUUGUACGUUUUCGUCAGGACAGGAUUGGUGAAGUAGUCGUUGGGUUCAAAGUGAAACUCGGGCACAAAAGACAUAGGUUGUCCAGGGUCUGAAAACUUCACUUUAAUAUCCUGCAGAUGCAACAGAGGAUUGAGCAUCA
B2: chr14:62203736:62203737:+_ENSG00000100644_ENST00000337138|hu_hu|motif|central (ssRNA)
RNA: GGGAGUUCUACAGUCCGACGAUCUCCAGCGGCUGGGGCCAGCAAAGUUAAAGCAUCAGGUUCCUUCUUAAGUUUGUCAAAGAGGCGGCUUGUAUCUUCUGAUUCAACUUUGGUGAAUAGCUGAGUCAUUUUCAUAUCUGAAGACAACAGAGGAUUGAGCAUCA
B3: chr14:78183846:78183847:+_ENSG00000119705_ENST00000557342|hu_hu|hu_hu_hu_mus_False|8_48 (ssRNA)
RNA: GGGAGUUCUACAGUCCGACGAUCUCUCAGAAAUCUUUCUUCAUCAGAUGUUUGAGCUCCGUGCAAAGCCUUUGCUCUUUGAGCUUGAACCUGGACCUAUGGGAGGGAAAGCACUGUCAGAAAAGGUUGUAGUGCAUUUAAAGACAACAGAGGAUUGAGCAUCA
B4: chr2:29169617:29169618:+_ENSG00000163811_ENST00000407426|hu_hu|FALSE|FALSE (ssRNA)
RNA: GGGAGUUCUACAGUCCGACGAUCUAGUUUGACCGGCUUGCUUUGCUGUCUUCAUUCUUCUUCACUUUCAUUUUCAGGAUCUAAAUCAGAAUCUCCAUUUAAUUCUUUUUCACUUGCUGUAUCUCUGUCCUCGCCAUUUUCUUCCAACAGAGGAUUGAGCAUCA
B5: chr17:39846101:39846102:+_ENSG00000173812_ENST00000591776|hu_mus|FALSE|FALSE (ssRNA)
RNA: GGGAGUUCUACAGUCCGACGAUCAUCAUCAGCGAUCCCUUGGACAGUGGUAAGGGUCUUCCUGCCGUUUCUCUGUUGAAUUCUUAUAUGGAUAUAAUCCUCAGUGCCAGCAGGAAGCAGGUCAUCACCCUUACUUGCAUCAGCCAACAGAGGAUUGAGCAUCA
B6: chr5:130458811:130458812:+_ENSMUSG00000066735_ENSMUST00000051758|mus_mus|motif|central (ssRNA)
RNA: GGGAGUUCUACAGUCCGACGAUCUACUUUCUUCACUAUGUAUCAGUCACGAUGAGCUGACAAUUCCUUUCUACACUUCAACGGAACUGUACAGUAAGUUCUGCAGGGGUGGAUCCCAAUGUUUCUACCUUUAUUUACAAAUAUCAACAGAGGAUUGAGCAUCA
B7: chr2:47387610:47387611:-_ENSG00000143933_ENST00000272298|hu_hu|FALSE|FALSE (ssRNA)
RNA: GGGAGUUCUACAGUCCGACGAUCACGCAGAGUUACAACUCCACACUUCAACAACAACAUGCUGACAGUUCCUAAAGAAAACUACUUUAAAAAAGGCAUAACCCAGAUGUUCCCUCAUUUGACCAACUCCAUCUAAGUUUAGAUCAACAGAGGAUUGAGCAUCA
B8: chr2:48026839:48026840:+_ENSG00000116062_ENST00000540021|hu_hu|hu_hu_hu_mus_False|28_38 (ssRNA)
RNA: GGGAGUUCUACAGUCCGACGAUCAUAGUGAGCCACUAGCGUCCUAAAUCUGGAACAGUGGCGGUCAUCCGAAAACUGGCCGAUGAAAAACUUGCCCAGUGAAGUAUCAACAAAGCAAACACCAUACACACGAGUGUGACCAGACAACAGAGGAUUGAGCAUCA
B9: chr18:9993692:9993693:+_ENSMUSG00000024287_ENSMUST00000025137|mus_mus|FALSE|FALSE (ssRNA)
RNA: GGGAGUUCUACAGUCCGACGAUCGGAGCACCAGCCAACUGUACAAUAGCUGUUAUAAAAGUGUUUAUUGUUUACCAAAACCAGUGAACCUUUUAUCAAAUGCUGCUUGGUAACAAAAUCUUAUCACUGUUUAAUAAAAAAGAACAACAGAGGAUUGAGCAUCA
B10: chr4:12084866:12084867:-_ENSMUSG00000028218_ENSMUST00000108285|mus_hu|FALSE|FALSE (ssRNA)
RNA: GGGAGUUCUACAGUCCGACGAUCUAAAUCUUCAUCUUCAUCAAUGUUUUGUAUAUUCUGGUAGGCAGCAGUGUAGACCUCUAAAGCUUUGCCGUGAAAUAACAUUUCGAUUGUGAUAAAUUCAGAAAAUAUAGUCUUUAUAUCCAACAGAGGAUUGAGCAUCA
B11: chr5:80946147:80946148:-_ENSG00000145687_ENST00000505980|hu_mus|FALSE|FALSE (ssRNA)
RNA: GGGAGUUCUACAGUCCGACGAUCUGUCUGAGCCGAUUUCUGAGCUCCUACAUGGAGCAGAUAUUCAUACACGUAGAGUGCUAACUUCUCCCGGGCCUGGCUGUCGGACGGGACGGCGCUGCUGUUACUCUUGCCUUUGCCGUACAACAGAGGAUUGAGCAUCA
B12: chr9:135554620:135554621:+_ENSG00000125484_ENST00000372146|hu_hu|FALSE|FALSE (ssRNA)
RNA: GGGAGUUCUACAGUCCGACGAUCUUCUUGUAAAAAUUGAGGGAUAUGUUUAUCUUUUAAAAUCUUCCAGCGUACUAGGUCUAUUAAAUCUACCUGCUUAAAAAGGUUUUGAACUGAAGAUUCCAGGAGCUGAGCAGCUGCCUCCAACAGAGGAUUGAGCAUCA
B13: chr2:198351390:198351391:-_ENSG00000144381_ENST00000345042|hu_hu|FALSE|FALSE (ssRNA)
RNA: GGGAGUUCUACAGUCCGACGAUCUUAUUCUCACUCUCCACAGAAAGGCUGCUUAACUUCUCAUCUGGUGGUGGCAAGCACUAAAAUCCUGAUUUUAACAGAAUAGUAGUAAAAAUGCCUCAGUGAUUUAAGUUGAAAGCAGUACAACAGAGGAUUGAGCAUCA
B14: chr3:9412954:9412955:+_ENSG00000134077_ENST00000452837|hu_mus|hu_hu_hu_mus_False|18_78 (ssRNA)
RNA: GGGAGUUCUACAGUCCGACGAUCGGUUGAUAUCUCUUCUUUGAUGGCUGGAUUUUCAUAAUAAUCUAAGAUAUGUGAAUCUGAAGUGCUGCUGGCAUGCUUUUUCUUACCAUCUUUCUGAUCGAUUUUGUCUCCUUGUCCACACAACAGAGGAUUGAGCAUCA
B15: 97314039_97317724_766_3pUTR_ENSMUSG00000039361_ENSMUST00000049537|mouse|control|control (ssRNA)
RNA: GGGAGUUCUACAGUCCGACGAUCUCUGUGUUCAUUGUUCUCAUAACUCCAUCAGCUCCUCUCUUCACUUUUGUGAAAUCGAAUGCAACUUGUCUGUAUGAAACUGCUUUUUCAUUUAAGUAUCUACUAUACCGUCUAAUAAAUCAACAGAGGAUUGAGCAUCA
B16: chr12:7078717:7078718:-_ENSG00000215021_ENST00000535923|hu_hu|FALSE|FALSE (ssRNA)
RNA: GGGAGUUCUACAGUCCGACGAUCUUUGGAGCCUGUAGGGGAGGAGAUUUUUCGAGGUCUGGCCCGAAUGUCAUAGAUAAUGGGGUACUGGAACCAAGGGAUCCUGAAGUGAAGGCCCUCGGCCAGGAUAGUGUCCUGCUGCACCAACAGAGGAUUGAGCAUCA
B17: chr1:184392483:184392484:+_ENSMUSG00000026510_ENSMUST00000117245|mus_mus|motif|central (ssRNA)
RNA: GGGAGUUCUACAGUCCGACGAUCCAUUUUUAAAACCAGCUAUGAUCUUGACAAAUACAGGUAAAUCUAUAACAAAUCUCGGAUUUCCAAGAUACAAAAAGACAAUAAAUAUAGAUUCAAAUUCAAUCUAAAAACAAGAUUCUACAACAGAGGAUUGAGCAUCA
B18: chr3:10015032:10015033:+_ENSMUSG00000027533_ENSMUST00000029046|mus_mus|mus_mus_mus_hu_True|8_48 (ssRNA)
RNA: GGGAGUUCUACAGUCCGACGAUCGUUUUUACCAUCACAAGUGAUGAUACAAUCUGGCUUGGCCAUUGCGCCCAUUUUUCGCAAAGCCAGUCCUACUCCUAGCUCCUUCAUGUAUUCAUCAAAGCCUUGGCUUUCCACCAGGCGCAACAGAGGAUUGAGCAUCA
B19: chr4:95202638:95202639:+_ENSG00000163104_ENST00000354268|hu_mus|motif|central (ssRNA)
RNA: GGGAGUUCUACAGUCCGACGAUCUAAGAGAACCUCUAGUAUAUCCAGCAUCAUGGUAAACUGGCUGAAUAAUACAACUCGGUCACCCUUCUGUUUCAACUCAGACAAGAUGCAUCCUAAGGCUCGGAAUUUCCCAGAAUCUAACAACAGAGGAUUGAGCAUCA
B20: chr7:99968543:99968544:+_ENSMUSG00000030643_ENSMUST00000032879|mus_mus|FALSE|FALSE (ssRNA)
RNA: GGGAGUUCUACAGUCCGACGAUCAAAGACCCUGAGUGAAUCUUCGGACUAGGCACGUCUUUCCCACUCCAGCGUUGCCAAUUAAAACAAUUUUGAACAGGAAAUCAUAAUCUUCCAUACUCAUUUACACAGCUGGUUUGGGAUCAACAGAGGAUUGAGCAUCA
B21: 42935089_42936028_1257_CDS_ENSG00000057935_ENST00000405094|human|control|control (ssRNA)
RNA: GGGAGUUCUACAGUCCGACGAUCUCUAACACGAGGGUCCUCUGUAGUUGGGCUAGGAGAUAACUUCUCUUCUUCUGACUGGGUGGGCAUUUUCAAGCCUCCAUAUUUUUUCCAAUAAAGCCAACAAAUUGCACAUAAUCUACACAACAGAGGAUUGAGCAUCA
B22: chr11:60016922:60016923:-_ENSMUSG00000020538_ENSMUST00000020846|mus_hu|FALSE|FALSE (ssRNA)
RNA: GGGAGUUCUACAGUCCGACGAUCCAGCUUAUGGUAGACCAGGGCUGCGUCUCGGGCGCUGGCGCUAGCAUCCACUCGCAGAGCACAGUCCUGCUGCAGGCCCCCUGCCCGGCCUGCCAGCCAGCGGCCCACCCAGAGACGCUGCAACAGAGGAUUGAGCAUCA

These binders were tested against T1, UNK ZnF1-3 (assay: nsRBNS (natural sequence RNA bind-n-seq); RBNS binding buffer (assumed for nsRBNS): 25 mM Tris pH 7.5, 150 mM KCl, 3 mM MgCl2, 0.01% Triton X-100, 500 ug/ml BSA, 20 U/ml SUPERase-In, 4 C; UNK is unkempt and MSI1 is Musashi-1; names of the RNAs are library labels; protein concentration not given here; high values mean tight binding).

Binder | binding signal
B1 | 0.817 enrichment R
B2 | 1.26 enrichment R
B3 | 1.31 enrichment R
B4 | 0.342 enrichment R
B5 | 0.362 enrichment R
B6 | 0.808 enrichment R
B7 | 1.07 enrichment R
B8 | 1.51 enrichment R
B9 | 1.11 enrichment R
B10 | 0.943 enrichment R
B11 | 0.582 enrichment R
B12 | 1.08 enrichment R
B13 | 1 enrichment R
B14 | 0.587 enrichment R
B15 | 0.666 enrichment R
B16 | 1.32 enrichment R
B17 | 0.681 enrichment R
B18 | 0.567 enrichment R
B19 | 0.855 enrichment R
B20 | 1.1 enrichment R
B21 | 0.813 enrichment R
B22 | 0.798 enrichment R
